Measured values from paper PMC4336329 (PLoS ONE, 2015).
Out of some 310,000 compounds screened, about 2,200 (0.71%) showed an effect of 50% or more. Effects have a minus sign here. The list shows a part of the results.

Biological target: human ether-à-go-go-related gene (hERG) potassium channel (human, UniProt Q12809)
Assay: primary screen, population patch clamp on CHO cells stably expressing hERG

human ether-à-go-go-related gene (hERG) potassium channel, sequence (Q12809 whole entry, looked up): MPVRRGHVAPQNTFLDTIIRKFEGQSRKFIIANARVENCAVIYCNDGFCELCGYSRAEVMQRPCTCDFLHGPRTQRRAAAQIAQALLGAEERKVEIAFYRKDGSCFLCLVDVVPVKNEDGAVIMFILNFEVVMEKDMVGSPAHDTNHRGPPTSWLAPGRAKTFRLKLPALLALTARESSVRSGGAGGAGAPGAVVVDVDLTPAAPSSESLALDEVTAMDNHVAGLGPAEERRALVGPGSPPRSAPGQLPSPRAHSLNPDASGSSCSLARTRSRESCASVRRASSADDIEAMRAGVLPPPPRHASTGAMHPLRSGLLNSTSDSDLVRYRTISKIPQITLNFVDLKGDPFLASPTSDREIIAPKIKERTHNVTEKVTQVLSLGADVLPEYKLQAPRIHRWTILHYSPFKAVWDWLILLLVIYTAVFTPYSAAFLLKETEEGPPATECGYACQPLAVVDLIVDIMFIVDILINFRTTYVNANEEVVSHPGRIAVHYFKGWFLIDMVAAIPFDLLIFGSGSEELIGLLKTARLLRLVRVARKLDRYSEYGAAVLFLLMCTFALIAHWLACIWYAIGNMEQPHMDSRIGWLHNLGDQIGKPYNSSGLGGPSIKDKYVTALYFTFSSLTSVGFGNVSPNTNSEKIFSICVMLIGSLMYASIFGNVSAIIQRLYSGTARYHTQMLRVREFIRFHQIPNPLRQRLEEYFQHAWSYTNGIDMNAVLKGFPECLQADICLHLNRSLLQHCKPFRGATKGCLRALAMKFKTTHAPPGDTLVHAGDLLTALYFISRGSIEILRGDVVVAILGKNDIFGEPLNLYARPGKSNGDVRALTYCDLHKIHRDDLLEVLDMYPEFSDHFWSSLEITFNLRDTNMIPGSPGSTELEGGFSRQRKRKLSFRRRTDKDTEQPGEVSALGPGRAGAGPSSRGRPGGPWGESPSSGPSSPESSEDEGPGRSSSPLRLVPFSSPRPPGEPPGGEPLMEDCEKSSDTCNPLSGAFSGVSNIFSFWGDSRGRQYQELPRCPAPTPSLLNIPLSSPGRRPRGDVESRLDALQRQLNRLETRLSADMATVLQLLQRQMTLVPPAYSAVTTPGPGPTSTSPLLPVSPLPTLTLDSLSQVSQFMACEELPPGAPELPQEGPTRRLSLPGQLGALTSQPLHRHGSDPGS

SMILES | hERG current change (%, negative = inhibition) at 1uM
COc1cccc(OCc2cc(/C=N/Nc3ccc(C(=O)O)cc3)ccc2OC)c1 | 11.6%
O=S(=O)(NCCC1=CCCCC1)c1ccc(Br)cc1 | 13%
CCN1CCN(C(=O)N2CCOCC2)CC1 | 11.6%
CCCC(=O)Nc1ccc(C(=O)COC(=O)c2cc(C)oc2C)cc1 | 5.01%
Cc1cccc(NC(=O)Cn2c(O)c(N=NC(N)=S)c3ccccc32)c1 | 4.09%
O=C(NCC1CCCO1)C1CCN(C(=O)c2ccc(Br)cc2)CC1 (centres unmarked) | 5.33%
O=C(Nc1ccc2c(c1)OCCO2)C(=S)NCc1ccccc1 | 11.8%
Cc1ccc(Nc2ncnc3c2nnn3Cc2ccccc2)cc1 | 10.2%
COc1cccc(C2CC(=O)C3=C(C2)Nc2ccccc2N(C(=O)CCC(=O)O)C3c2ccc(F)cc2)c1 (centres unmarked) | 12.5%
Cc1ccc(S(=O)(=O)Nc2ccc3c(c2)n(C)c(=O)n3C)c(C)c1 | 7.61%
Cn1cnnc1Sc1ccc(C(F)(F)F)cc1[N+](=O)[O-] | 6.67%
Nc1ccc(N2CCN(c3ccc(Cl)c(Cl)c3)CC2)cc1 | 12.4%
CCOc1ccc(NC(=O)CCC(=O)Oc2ccc(C)cc2)cc1 | 17.6%
Cc1oc(CC(C)C)cc1C(=O)Nc1cccc2ccccc12 | -4.1%
Clc1ccc(CONc2ncnc3nonc23)c(Cl)c1 | 5.61%
CCN(CC)c1ccc(CN(C(=O)c2cc(OC)c(OC)c(OC)c2)C2CCS(=O)(=O)C2)cc1 (centres unmarked) | 13%
CC(C)(C)OC(=O)N1CCN(c2ccc([N+](=O)[O-])cc2)CC1 | -29.6%
Cc1oc(-c2ccccc2F)nc1CS(=O)(=O)CC(=O)NCc1ccccc1Cl | 4.76%
O=C(c1ccc(Cl)cc1)C1CCCN(Cc2ccc3ncccc3c2)C1 (centres unmarked) | -2.91%

SMILES | hERG current change (%, negative = inhibition) at 1uM
COc1cccc(C(=O)NCc2nnc(SCC(=O)Nc3nccs3)n2-c2cccc(C)c2)c1 | -2.19%
C/C=C/Cn1c(Br)nc2c1c(=O)[nH]c(=O)n2C | -2.09%
CN(C)S(=O)(=O)N1CCN(c2ccnc3cc(Cl)ccc23)CC1 | -65.6%
C=CCn1c(SCC(=O)N2CCOCC2)nc2sc(C)c(C)c2c1=O | -23.2%
CCc1ccc(CNC(=O)C2CCCN(c3nn4c(=O)cc(C)nc4s3)C2)cc1 (centres unmarked) | -4.79%
Clc1ccc(Nc2nc(-c3cccs3)cs2)nc1 | 1.44%
O=C(NCCn1ccc2ccccc21)c1cccc([N+](=O)[O-])c1 | 1.88%
O=C(NCCc1cn2ccsc2n1)c1cccs1 | 3.31%
COc1cc(/C=N/N2CCN(Cc3ccc(Cl)cc3)CC2)ccc1OC(C)=O | 4.61%
O=C(CSc1ccc(-c2ccco2)nn1)NCc1ccc(Cl)cc1 | 1.89%
O=C(COc1ccc(C(=O)O)cc1)Nc1cccc(C(F)(F)F)c1 | 8.66%
O=C1CC2(CCCC2)CC(=O)N1c1ccccc1 | 14.7%
CCNc1nc(Oc2ccc(Cl)cc2Cl)cc(C(F)(F)F)n1 | 5.11%
CCOC(=O)/C=C/C(=O)OCC(=O)N1CCN(C(=O)c2ccco2)CC1 | 5.41%
CCCCc1ccc(NC(=S)N2CCCC(C)C2)cc1 (centres unmarked) | 10.2%
O=C(O)c1ccccc1C1Nc2ccccc2C(=O)N1CCCN1CCOCC1 (centres unmarked) | 18.1%
CC(NC(=O)c1cc([N+](=O)[O-])cc([N+](=O)[O-])c1)C1CC2CCC1C2 (centres unmarked) | 15.1%
CCOc1ccccc1Oc1cn[nH]c1-c1ccc(OC)cc1O | 9.45%
Cc1cccc(N2CCN(C(=O)CNC(=O)c3cccc([N+](=O)[O-])c3)CC2)c1C | -24.3%

SMILES | hERG current change (%, negative = inhibition) at 1uM
CN(C)C(CNc1ccc(C(F)(F)F)cc1[N+](=O)[O-])c1ccccc1 (centres unmarked) | 2.18%
COc1ccc(-c2[nH]ncc2C=O)cc1 | 11.6%
CCOC(=O)C1(CCOc2ccccc2)CCN(C(=O)c2ccc(-n3cccn3)cc2)CC1 | -85.6%
Cc1cc(C(=O)OCC(=O)c2c(N)n(C)c(=O)n(C)c2=O)c(C)o1 | 17.8%
COC(=O)CSc1nnc(CNc2ccc(Cl)cc2)n1Cc1ccccc1 | -19.6%
CCOC(=O)c1c(C)nc2c(c1-c1cc(OC)ccc1OC)C(=O)c1ccccc1-2 | 0.269%
CCN1CCN(C(CC(C)C)c2nnnn2CS(=O)(=O)c2ccc(C)cc2)CC1.Cl (centres unmarked) | 11%
COCCn1c(SCC(=O)c2ccccc2)nc2c(c1=O)SCC2 | -2.31%
CC1=CC(=O)C(C(C)C)=C/C1=C(\c1cc(C(C)C)c(OP(=O)([O-])[O-])cc1C)c1ccccc1C(=O)O.[Na+] | 12.1%
N#C/C(=C\c1ccccc1O)C(=O)Nc1cccnc1 | 8.27%
O=C(Nc1ccc(F)cc1)C1CCN(S(=O)(=O)c2ccc3[nH]c(=O)oc3c2)CC1 | 0.557%
Cc1ccccc1C(=O)Nc1nnc(-c2ccco2)o1 | 10.3%
O=C(COC(=O)Cc1ccc(Cl)cc1)Nc1ccccc1F | -0.431%
C=CCn1c(O)c(C2=c3ccccc3=NC2=O)s/c1=N/c1nccs1 | 15.7%
COc1cc(NC(=S)N2CCN(CCO)CC2)cc(OC)c1 | 15.3%
O=C(Nc1ccccc1C(=O)O)c1cc(S(=O)(=O)N2CCCCC2)c(Cl)cc1Cl | 17.8%
C=CCNC(=S)/N=c1/ccccn1CC | 18.4%
CCN(CC(=O)NCc1ccc(Cl)cc1)C(=O)c1cc(S(=O)(=O)NCc2ccccc2)ccc1C | -5.01%
